The full ranking holds about 33,000 sequences; the median of “E-score (-0.5 to 0.5)” is about -0.032, and the highest 2% start at about 0.36. The list shows a part of the results.
What follows are sequences tested against T1, Sko1 (UniProt Q02100) (assay: PBM E-score (8-mer binding enrichment) (E-score (-0.5 to 0.5)); higher = stronger / more preferred TF binding; most listed sequences are background and not binding sites). Conditions: protein concentration: 200 nM; construct: GST-full length.
T1 sequence: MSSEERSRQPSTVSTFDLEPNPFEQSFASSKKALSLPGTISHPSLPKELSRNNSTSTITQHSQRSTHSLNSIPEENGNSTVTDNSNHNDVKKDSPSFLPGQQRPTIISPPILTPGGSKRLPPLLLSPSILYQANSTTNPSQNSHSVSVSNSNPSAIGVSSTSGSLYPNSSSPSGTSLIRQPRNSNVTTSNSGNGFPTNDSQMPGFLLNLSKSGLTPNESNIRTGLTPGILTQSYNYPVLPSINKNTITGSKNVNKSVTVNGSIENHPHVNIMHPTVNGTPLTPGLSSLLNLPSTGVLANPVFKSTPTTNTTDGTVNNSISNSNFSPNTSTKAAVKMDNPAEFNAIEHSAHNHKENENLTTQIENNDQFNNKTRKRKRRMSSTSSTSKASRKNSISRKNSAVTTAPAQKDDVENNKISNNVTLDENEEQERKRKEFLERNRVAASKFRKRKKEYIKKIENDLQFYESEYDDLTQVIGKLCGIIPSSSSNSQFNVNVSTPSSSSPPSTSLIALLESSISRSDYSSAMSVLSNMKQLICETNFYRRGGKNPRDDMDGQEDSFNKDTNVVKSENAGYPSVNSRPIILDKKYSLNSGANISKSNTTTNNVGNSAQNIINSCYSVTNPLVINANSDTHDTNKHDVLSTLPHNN
In short: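 Universal all-10-mer Agilent arrays, double-stranded by primer extension on fresh or once-stripped slides, were probed with about 100-200 nM GST-tagged yeast transcription factors made by PURExpress. Fluorescent anti-GST detected bound protein, and masliner normalised the scans. E-scores from the Universal PBM Analysis Suite were given to each ungapped eight-base word pooled with its reverse complement.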

Sequence | PBM E-score
CGGAACGC | -0.171
CGGACCTC | -0.237
GCTATAGA | -0.0939
CCGGAGTC | -0.114
CGAGACTA | 0.179
CGCTTGGC | -0.0644
AGTTTAAC | 0.0741
GATGCGGC | -0.214
AGTAGACC | -0.183
CTGCCTGC | -0.262
CACCCCTA | -0.0226
CACCGCCG | -0.307
CAATATGA | 0.299
ATACCCTA | 0.0013
AATCTCTA | 0.0999
CGTTGCAA | 0.137
GCTAAGAC | 0.107
CTGTATCC | -0.166
CAAGCTCG | -0.0275
ATAAACGC | 0.181
CCGTTGGC | -0.191
CCTCCGGA | -0.336
GTGTTTTA | 0.211
AACGAGGT | -0.0133
CCGAGCAG | -0.118

Sequence | PBM E-score
AACACCAG | -0.0665
ATTAACCA | -0.0697
AACTGGTA | -0.217
TTTCAAAA | 0.253
TAGGGGGA | -0.251
AGTACACT | 0.02
GTTCCGAA | 0.0442
TCAGCAGA | -0.157
CTATATTC | 0.11
CTAATGGA | -0.158
ACGAGGCT | 0.0826
CCCCGATC | -0.386
GGGCATGA | -0.29
GTCCCTCA | -0.256
CGGTCTCA | -0.236
GTCAAGCA | -0.0917
AGTTAAAT | 0.077
ATTCAACC | -0.122
TAAGTGGA | 0.0718
AGTCGCTG | -0.202
ATCTCCAA | -0.102
CCGGAAGC | -0.193
ACAGTAAG | 0.118
CTACAATA | 0.0315
TAACTGCA | 0.0898

Sequence | PBM E-score
CGCTCGTA | 0.0208
AAGTGAGA | -0.122
TAGCGGGA | -0.23
GCTACAAC | -0.226
ATTCTCTC | 0.0175
ATCATCAA | 0.149
TCGATGAA | 0.017
GAGACGAA | -0.0289
CGTGTTCC | 0.0601
CGAGACCC | -0.17
CTTCGTTC | -0.123
GCGTCTCC | -0.116
ATAATGAT | 0.278
GAAAAAAC | 0.201
CTTTCTCA | 0.168
AGGTGCCA | -0.0356
AGATGGAG | -0.163
CTTGATGC | -0.116
GAGTAGGC | -0.259
CACCTGGC | -0.0659
ATACGGTA | 0.255
ATACCACA | 0.056
GCGGTAGC | -0.198
ACCCAACC | -0.119
TCGGCAGA | -0.18

Sequence | PBM E-score
AAGAACTT | 0.0882
CCAATCTC | -0.09
ACCTAACC | 0.201
CCAAATAA | 0.209
GTATCTTA | 0.21
ATGGTATG | -0.135
ACATGACA | 0.217
AAATCAAG | 0.122
ACCGCTTC | -0.221
CCAGGTGA | -0.0328
AGGGGGAC | -0.287
AGAGTGTG | -0.0999
ACAGTTAG | -0.2
GACTCGTA | 0.0636
ACACATAG | 0.0102
CACTATGG | -0.129
CTTTACGC | 0.35
CAATCCAG | -0.158
CAAAGCGG | -0.189
AGCGTCAT | 0.445
TCTGACAA | 0.0457
CCGTTCCA | -0.184
CGCAACTA | 0.146
AGCTATTA | 0.145
ATAATTCA | 0.22

Sequence | PBM E-score
GAAGGCGC | -0.204
GAGCCTAA | -0.116
CGTTAACG | 0.137
CAAGAACC | 0.2
TGCCGTAA | 0.159
AAAGACCG | -0.106
CCGACCTA | 0.0614
GAAACTGA | -0.0418
GCACTCCC | -0.143
ATCGAGAT | -0.05
CGTCGCTA | 0.133
TCGGTCAA | -0.0674
CGCCTTGA | -0.11
CTCCCCGA | -0.299
GATTAAGC | -0.0337
ACATAAGT | 0.207
AAACTTCA | 0.181
CAAATCTG | 0.121
AATTTAGC | 0.187
AAAGTTCT | -0.051
ACGGCGAT | -0.113
ACGCGACG | 0.23
CACTACAA | 0.266
CGACCTAA | 0.136
CGAGTCTC | -0.407

Sequence | PBM E-score
GTTTATAA | 0.19
ACCCGTGC | 0.0134
CAAGATTG | 0.0271
CCTGCAGG | -0.237
CATAGTCA | 0.00982
CACCCCTC | -0.188
AGAAGAGG | -0.0413
ATAACTAC | 0.264
GCCACCGC | -0.181
ATCGGTTA | 0.0159
GAAGAAAA | 0.0331
CTTTATTC | -0.0121
CCCTGGCC | -0.265
CATAGGAC | -0.0867
CAGAACGA | 0.0394
AGATCGCC | -0.0903
GGGGAAAA | -0.0662
AGAAACCA | -0.026
ATCCTAGC | -0.0411
CGGCTGCA | -0.265
GTTCTACA | -0.0101
ACCTAAAC | 0.0414
CCCATACA | 0.00693
ATGCCTGG | -0.197
ACTTGCAT | 0.0511

Sequence | PBM E-score
GCTACGTA | 0.456
ATTGCAGC | -0.00414
ACAGCGGG | -0.109
ATCTTAAG | -0.0288
CTTAACTA | 0.189
CTAGTGAG | 0.0303
CGTCTGAC | 0.128
CAGGTGGA | -0.286
TGTAACAA | 0.0605
ATTCTCAG | -0.0855
ATCAGAAA | 0.0216
AACGCCCC | -0.21
ACTTTCAT | 0.0326
AATAGGGC | -0.218
AGCTGAGC | -0.2
CTGCGATC | -0.212
AAAGGCAT | -0.0528
AATCCTTG | -0.054
GGAGGCGA | -0.151
TCGCCAAA | -0.114
ATTTGCTG | 0.0414
CCTCATTA | 0.131

From the supplement of paper PMC3334620
